# Some of the results follow. Repeats are few or missing, and single values can be far off.
# How the values were obtained:
# Test in all cases: cell count relative to DMSO control; melanoma cells; higher = more viable cells
# Settings in all cases: library dose: low library concentration; 72 h
# [1] = system: COLO792
# [2] = system: COLO800
# [3] = system: COLO829
# [4] = system: G361
# [5] = system: IPC-298
# [6] = system: IST-MEL1
# [7] = system: LB2518-MEL
# [8] = system: LOXIMVI
# [9] = system: MEL-HO
# [10] = system: MZ2-MEL
# [11] = system: MeWo
# [12] = system: RPMI7951
# [13] = system: RVH-421
# [14] = system: SkMel28
# [15] = system: SkMel2
# [16] = system: SkMel30
# [17] = system: SkMel5
# [18] = system: UACC257
# [19] = system: UACC62
# 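Also: cell number obtained by counting DAPI-stained nuclei in high-throughput microscope images with image analysis software, screen run in 1,536-well plates.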
SMILES,cell count [1] [%],cell count [2] [%],cell count [3] [%],cell count [4] [%],cell count [5] [%],cell count [6] [%],cell count [7] [%],cell count [8] [%],cell count [9] [%],cell count [10] [%],cell count [11] [%],cell count [12] [%],cell count [13] [%],cell count [14] [%],cell count [15] [%],cell count [16] [%],cell count [17] [%],cell count [18] [%],cell count [19] [%]
"C[C@]1(c2nc3c(C(N)=O)cccc3[nH]2)CCCN1 [Veliparib] + C[C@@H]1CCN(C(=O)CC#N)C[C@@H]1N(C)c1ncnc2[nH]ccc12 [CP690550] (first compound 1.4 µM, partner dose 1 µM)",102,69.4,92.1,90.9,105,103,83.6,125,102,97.6,92.6,97.9,80.9,84.1,97,90.4,88.2,81.6,76.3
"NC(=O)Nc1cc(-c2cccc(F)c2)sc1C(=O)N[C@H]1CCCNC1 + OCCn1cc(-c2cnc3nnn(Cc4ccc5ncccc5c4)c3n2)cn1 [PF04217903] (first compound 0.02 µM, partner dose 1 µM)",87.7,101,96.6,98,114,107,105,64.6,88.6,118,117,105,132,120,113,95.3,110,144,105
"Cc1nc(Nc2ncc(C(=O)Nc3c(C)cccc3Cl)s2)cc(N2CCN(CCO)CC2)n1 [dasatanib] + CN(NC(=O)CC(=O)NN(C)C(=S)c1ccccc1)C(=S)c1ccccc1 [STA4783] (first compound 0.004 µM, partner dose 0.006 µM)",45.3,68.6,41,87.4,97.1,62.1,61.6,21.8,80.6,75.7,90.9,77.1,76.1,74,95,71.5,93.1,73.2,79.1
"C[C@]1(c2nc3c(C(N)=O)cccc3[nH]2)CCCN1 [Veliparib] + Cn1cncc1[C@@](N)(c1ccc(Cl)cc1)c1ccc2c(c1)c(-c1cccc(Cl)c1)cc(=O)n2C [tipifarnib] (first compound 1.4 µM, partner dose 0.01 µM)",87.6,112,81.5,75.8,93.1,91.5,80,56.6,91.3,89.8,93,109,80.9,79.2,77.4,83.2,89.4,66.3,51.1
"NC(=O)Nc1cc(-c2cccc(F)c2)sc1C(=O)N[C@H]1CCCNC1 + CN(C)S(=O)(=O)c1ccc2c(c1)/C(=C/c1cc3c([nH]1)CCCC3)C(=O)N2 [SU6656] (first compound 0.02 µM, partner dose 0.4 µM)",97.6,111,90,99.4,113,101,130,56.4,95,105,86.9,99.9,95,95.6,93.8,105,94.4,103,86.4
"CO[C@@H]1[C@H](N(C)C(=O)c2ccccc2)C[C@H]2O[C@]1(C)n1c3ccccc3c3c4c(c5c6ccccc6n2c5c31)C(=O)NC4 [Midostaurin] + COc1cc2c(Oc3ccc4[nH]c(C)cc4c3F)ncnc2cc1OCCCN1CCCC1 [cediranib] (first compound 0.08 µM, partner dose 0.4 µM)",87.7,98,107,84.6,102,94.1,111,98,98.9,108,85.6,91.8,101,84.7,73.7,101,76.6,83,88.4
"CN(C)S(=O)(=O)c1ccc2c(c1)/C(=C/c1cc3c([nH]1)CCCC3)C(=O)N2 + COc1cc2c(Oc3ccc4[nH]c(C)cc4c3F)ncnc2cc1OCCCN1CCCC1 [cediranib] (first compound 0.4 µM, partner dose 0.4 µM)",85.1,114,94.4,98.2,97.9,103,83,103,96.5,106,106,103,92.5,94,95.7,96.5,101,107,100
"NCC(=O)Nc1ccc(-n2nc(C(F)(F)F)cc2-c2ccc3c(ccc4ccccc43)c2)cc1 + COc1cc2c(Oc3ccc4[nH]c(C)cc4c3F)ncnc2cc1OCCCN1CCCC1 [cediranib] (first compound 1 µM, partner dose 0.4 µM)",89.5,89.5,78.6,81.9,78.3,99.2,102,74.1,92,90.1,65.7,108,113,79.8,67.5,42.8,89.7,88,86.7
"C[C@]1(c2nc3c(C(N)=O)cccc3[nH]2)CCCN1 [Veliparib] + OCCn1cc(-c2cnc3nnn(Cc4ccc5ncccc5c4)c3n2)cn1 [PF04217903] (first compound 1.4 µM, partner dose 1 µM)",107,94.9,90,92.3,99.8,99.4,81.2,101,99.9,96.9,100,93.1,112,97.2,91.6,92.7,110,103,77
"OCCn1cc(-c2cnc3nnn(Cc4ccc5ncccc5c4)c3n2)cn1 + NCC(=O)Nc1ccc(-n2nc(C(F)(F)F)cc2-c2ccc3c(ccc4ccccc43)c2)cc1 [OSU03012] (first compound 1 µM, partner dose 1 µM)",105,117,112,103,88,89.2,93.8,105,91,107,56.6,102,95.5,89.6,81.8,57.1,105,97.8,96.7
"C=CCn1c(=O)c2cnc(Nc3ccc(N4CCN(C)CC4)cc3)nc2n1-c1cccc(C(C)(C)O)n1 + COc1cc2c(Oc3ccc4[nH]c(C)cc4c3F)ncnc2cc1OCCCN1CCCC1 [cediranib] (first compound 0.02 µM, partner dose 0.4 µM)",79.9,85.6,89.2,99.9,93.9,109,79.8,82.5,92.3,97.3,92.3,89.7,96.2,84,94.7,86.3,84.6,89.2,94.3
"Cc1nc(Nc2ncc(C(=O)Nc3c(C)cccc3Cl)s2)cc(N2CCN(CCO)CC2)n1 [dasatanib] + C[C@@H]1CCN(C(=O)CC#N)C[C@@H]1N(C)c1ncnc2[nH]ccc12 [CP690550] (first compound 0.004 µM, partner dose 1 µM)",61.2,79.5,79.3,92.1,106,90.5,89.1,62.5,78.4,85.4,97.5,79.1,80,81.3,86.4,94.4,97.7,93.9,73.9
"CO[C@@H]1[C@H](N(C)C(=O)c2ccccc2)C[C@H]2O[C@]1(C)n1c3ccccc3c3c4c(c5c6ccccc6n2c5c31)C(=O)NC4 [Midostaurin] + O=C(O)c1ccc(-c2c[nH]c3ncc(-c4ccccc4)cc23)cc1C1CCCC1 [GSK650394] (first compound 0.08 µM, partner dose 0.16 µM)",99.1,72.5,109,90,96.4,96.5,94.7,95.4,86,88,77.2,112,86.5,96.2,86.4,103,82.7,85.6,96.5
"Cc1nc(Nc2ncc(C(=O)Nc3c(C)cccc3Cl)s2)cc(N2CCN(CCO)CC2)n1 [dasatanib] + C=CCn1c(=O)c2cnc(Nc3ccc(N4CCN(C)CC4)cc3)nc2n1-c1cccc(C(C)(C)O)n1 [MK1775] (first compound 0.004 µM, partner dose 0.02 µM)",53.7,73.4,79,79.3,102,80.5,83.2,47,80.2,73.5,84.7,71.1,57.1,63.7,89.3,84.6,80.2,68.2,84.7
"NC(=O)Nc1cc(-c2cccc(F)c2)sc1C(=O)N[C@H]1CCCNC1 + C[C@@H]1CCN(C(=O)CC#N)C[C@@H]1N(C)c1ncnc2[nH]ccc12 [CP690550] (first compound 0.02 µM, partner dose 1 µM)",104,84.9,119,105,101,105,128,95.4,122,104,111,99.1,131,114,110,135,102,137,89.8
"NC(=O)Nc1cc(-c2cccc(F)c2)sc1C(=O)N[C@H]1CCCNC1 + NCC(=O)Nc1ccc(-n2nc(C(F)(F)F)cc2-c2ccc3c(ccc4ccccc43)c2)cc1 [OSU03012] (first compound 0.02 µM, partner dose 1 µM)",91.7,71.9,75.3,95.9,77.3,106,128,85.6,100,87.1,46.9,87.5,112,77.3,64.3,49.1,96.5,94.1,103
"C=CCn1c(=O)c2cnc(Nc3ccc(N4CCN(C)CC4)cc3)nc2n1-c1cccc(C(C)(C)O)n1 + Cc1cc(N2CCOCC2)cc2[nH]c(-c3c(NC[C@@H](O)c4cccc(Cl)c4)cc[nH]c3=O)nc12 [BMS536924] (first compound 0.02 µM, partner dose 0.2 µM)",81,63.5,95.7,86.4,88.9,99.6,80.8,112,111,95.9,96.9,94.9,81.1,82.4,76.9,83,81.5,79.7,68.8

# From the supplement of paper PMC4604168 (melanoma cell lines)
